The list shows a part of the results.
Legend:
Test in all cases: glycan array binding signal (z-score within array); higher = stronger binding
Settings in all cases: glycan notation: IUPAC condensed, linker removed
[1] = target: Neu5Ac(a2-3)Gal(b1-4)GlcNAc(b1-3)Gal(b1-4)[Fuc(a1-3)]GlcNAc
Procedure, shortened: (§1)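 Negative Z-scores can be read as non-binding. The Z-score is calculated within each array and then averaged across arrays of one protein sequence at different concentrations or buffers and across linkers. Arrays, 3228 in all, were curated from the Consortium for Functional Glycomics database and kept only where the protein sequence was available.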

[2] = target: Neu5Ac(a2-3)Gal(b1-4)GlcNAc(b1-3)GalNAc
Procedure, shortened: as §1

[3] = target: Neu5Ac(a2-3)Gal(b1-4)GlcNAc(b1-3)[Neu5Ac(a2-3)Gal(b1-4)GlcNAc(b1-6)]GalNAc
Procedure, shortened: as §1

[4] = target: Neu5Ac(a2-3)Gal(b1-4)GlcNAc(b1-6)GalNAc
Procedure, shortened: as §1

[5] = target: Neu5Ac(a2-3)Gal(b1-4)GlcNAc(b1-6)[Gal(b1-3)]GalNAc
Procedure, shortened: as §1

[6] = target: Neu5Ac(a2-3)Gal(b1-4)GlcNAc(b1-6)[Neu5Ac(a2-3)Gal(b1-3)]GalNAc
Procedure, shortened: as §1

[7] = target: Neu5Ac(a2-3)Gal(b1-4)GlcNAc6S
Procedure, shortened: as §1

[8] = target: Neu5Ac(a2-3)Gal(b1-4)[Fuc(a1-3)]GlcNAc
Procedure, shortened: as §1

[9] = target: Neu5Ac(a2-3)Gal(b1-4)[Fuc(a1-3)]GlcNAc(b1-2)Man
Procedure, shortened: as §1

[10] = target: Neu5Ac(a2-3)Gal(b1-4)[Fuc(a1-3)]GlcNAc(b1-3)Gal
Procedure, shortened: as §1

[11] = target: Neu5Ac(a2-3)Gal(b1-4)[Fuc(a1-3)]GlcNAc(b1-3)Gal(b1-4)GlcNAc
Procedure, shortened: as §1

[12] = target: Neu5Ac(a2-3)Gal(b1-4)[Fuc(a1-3)]GlcNAc(b1-3)Gal(b1-4)[Fuc(a1-3)]GlcNAc(b1-3)Gal(b1-4)[Fuc(a1-3)]GlcNAc
Procedure, shortened: as §1

[13] = target: Neu5Ac(a2-3)Gal(b1-4)[Fuc(a1-3)]GlcNAc(b1-3)GalNAc
Procedure, shortened: as §1

[14] = target: Neu5Ac(a2-3)Gal(b1-4)[Fuc(a1-3)]GlcNAc(b1-6)[Gal(b1-3)]GalNAc
Procedure, shortened: as §1

[15] = target: Neu5Ac(a2-3)Gal(b1-4)[Fuc(a1-3)]GlcNAc(b1-6)[Neu5Ac(a2-3)Gal(b1-3)]GalNAc
Procedure, shortened: as §1

[16] = target: Neu5Ac(a2-3)Gal(b1-4)[Fuc(a1-3)]GlcNAc6S
Procedure, shortened: as §1

[17] = target: Neu5Ac(a2-3)Gal6S(b1-4)GlcNAc
Procedure, shortened: as §1

[18] = target: Neu5Ac(a2-3)Gal6S(b1-4)[Fuc(a1-3)]GlcNAc
Procedure, shortened: as §1

Neu5Ac(a2-3)GalNAc = target: Neu5Ac(a2-3)GalNAc
Procedure, shortened: as §1

[19] = target: Neu5Ac(a2-3)GalNAc(b1-4)GlcNAc
Procedure, shortened: as §1

[20] = target: Neu5Ac(a2-3)[GalNAc(b1-4)]Gal(b1-4)Glc
Procedure, shortened: as §1

[21] = target: Neu5Ac(a2-3)[GalNAc(b1-4)]Gal(b1-4)GlcNAc
Procedure, shortened: as §1

[22] = target: Neu5Ac(a2-3)[GalNAc(b1-4)]Gal(b1-4)GlcNAc(b1-3)GalNAc
Procedure, shortened: as §1

[23] = target: Neu5Ac(a2-3)[Neu5Ac(a2-6)]GalNAc
Procedure, shortened: as §1

Neu5Ac(a2-6)Gal = target: Neu5Ac(a2-6)Gal
Procedure, shortened: as §1

[24] = target: Neu5Ac(a2-6)Gal(b1-3)GlcNAc(b1-3)[Gal(b1-4)GlcNAc(b1-6)]Gal(b1-4)Glc
Procedure, shortened: as §1

Neu5Ac(a2-6)Gal(b1-4)Glc = target: Neu5Ac(a2-6)Gal(b1-4)Glc
Procedure, shortened: as §1

[25] = target: Neu5Ac(a2-6)Gal(b1-4)GlcNAc
Procedure, shortened: as §1

[26] = target: Neu5Ac(a2-6)Gal(b1-4)GlcNAc(b1-2)Man
Procedure, shortened: as §1

[27] = target: Neu5Ac(a2-6)Gal(b1-4)GlcNAc(b1-2)Man(a1-3)Man(b1-4)GlcNAc(b1-4)GlcNAc
Procedure, shortened: as §1

[28] = target: Neu5Ac(a2-6)Gal(b1-4)GlcNAc(b1-2)Man(a1-3)[Gal(b1-4)GlcNAc(b1-2)Man(a1-6)]Man(b1-4)GlcNAc(b1-4)GlcNAc
Procedure, shortened: as §1

[29] = target: Neu5Ac(a2-6)Gal(b1-4)GlcNAc(b1-2)Man(a1-3)[GlcNAc(b1-2)Man(a1-6)]Man(b1-4)GlcNAc(b1-4)GlcNAc
Procedure, shortened: as §1

[30] = target: Neu5Ac(a2-6)Gal(b1-4)GlcNAc(b1-2)Man(a1-3)[GlcNAc(b1-2)Man(b1-4)GlcNAc(b1-2)Man(a1-6)]Man(b1-4)GlcNAc(b1-4)GlcNAc
Procedure, shortened: as §1

[31] = target: Neu5Ac(a2-6)Gal(b1-4)GlcNAc(b1-2)Man(a1-3)[GlcNAc(b1-4)][Neu5Ac(a2-6)Gal(b1-4)GlcNAc(b1-2)Man(a1-6)]Man(b1-4)GlcNAc(b1-4)GlcNAc
Procedure, shortened: as §1

[32] = target: Neu5Ac(a2-6)Gal(b1-4)GlcNAc(b1-2)Man(a1-3)[Man(a1-6)]Man(b1-4)GlcNAc(b1-4)GlcNAc
Procedure, shortened: as §1

[33] = target: Neu5Ac(a2-6)Gal(b1-4)GlcNAc(b1-2)Man(a1-3)[Neu5Ac(a2-3)Gal(b1-4)GlcNAc(b1-2)Man(a1-6)]Man(b1-4)GlcNAc(b1-4)GlcNAc
Procedure, shortened: as §1

[34] = target: Neu5Ac(a2-6)Gal(b1-4)GlcNAc(b1-2)Man(a1-3)[Neu5Ac(a2-6)Gal(b1-4)GlcNAc(b1-2)Man(a1-6)]Man(b1-4)GlcNAc(b1-4)GlcNAc
Procedure, shortened: as §1

[35] = target: Neu5Ac(a2-6)Gal(b1-4)GlcNAc(b1-2)Man(a1-3)[Neu5Ac(a2-6)Gal(b1-4)GlcNAc(b1-2)Man(a1-6)]Man(b1-4)GlcNAc(b1-4)[Fuc(a1-6)]GlcNAc
Procedure, shortened: as §1

[36] = target: Neu5Ac(a2-6)Gal(b1-4)GlcNAc(b1-2)Man(a1-6)Man(b1-4)GlcNAc(b1-4)GlcNAc
Procedure, shortened: as §1

[37] = target: Neu5Ac(a2-6)Gal(b1-4)GlcNAc(b1-2)Man(a1-6)[Gal(b1-4)GlcNAc(b1-2)Man(a1-3)]Man(b1-4)GlcNAc(b1-4)GlcNAc
Procedure, shortened: as §1

[38] = target: Neu5Ac(a2-6)Gal(b1-4)GlcNAc(b1-2)Man(a1-6)[GlcNAc(b1-2)Man(a1-3)]Man(b1-4)GlcNAc(b1-4)GlcNAc
Procedure, shortened: as §1

[39] = target: Neu5Ac(a2-6)Gal(b1-4)GlcNAc(b1-2)Man(a1-6)[Man(a1-3)]Man(b1-4)GlcNAc(b1-4)GlcNAc
Procedure, shortened: as §1

[40] = target: Neu5Ac(a2-6)Gal(b1-4)GlcNAc(b1-2)[Neu5Ac(a2-6)Gal(b1-4)GlcNAc(b1-4)]Man(a1-3)[GlcNAc(b1-4)][Neu5Ac(a2-6)Gal(b1-4)GlcNAc(b1-2)[Neu5Ac(a2-6)Gal(b1-4)GlcNAc(b1-6)]Man(a1-6)]Man(b1-4)GlcNAc(b1-4)GlcNAc
Procedure, shortened: as §1

[41] = target: Neu5Ac(a2-6)Gal(b1-4)GlcNAc(b1-2)[Neu5Ac(a2-6)Gal(b1-4)GlcNAc(b1-4)]Man(a1-3)[GlcNAc(b1-4)][Neu5Ac(a2-6)Gal(b1-4)GlcNAc(b1-4)Man(a1-6)]Man(b1-4)GlcNAc(b1-4)GlcNAc
Procedure, shortened: as §1

[42] = target: Neu5Ac(a2-6)Gal(b1-4)GlcNAc(b1-2)[Neu5Ac(a2-6)Gal(b1-4)GlcNAc(b1-6)]Man(a1-6)[Neu5Ac(a2-6)Gal(b1-4)GlcNAc(b1-2)Man(a1-3)][GlcNAc(b1-4)]Man(b1-4)GlcNAc(b1-4)GlcNAc
Procedure, shortened: as §1

B1: rCNL (Clitocybe nebularis), B2ZRS9 (protein)
chain: SITPGTYNITNVAYTNRLIDLTGSNPAENTLIIGHHLNKTPSGYGNQQWTLVQLPHTTIYTMQAVNPQSYVRVRDDNLVDGAALVGSQQPTPVSIESAGNSGQFRIKIPNLGLALTLPSDANSTPIVLGEVDETSTNQLWAFESVSAV
- glycan array binding signal (z-score) [1]: -0.304
- glycan array binding signal (z-score) [2]: -0.306
- glycan array binding signal (z-score) [3]: -0.213
- glycan array binding signal (z-score) [4]: -0.218
- glycan array binding signal (z-score) [5]: -0.314
- glycan array binding signal (z-score) [6]: -0.33
- glycan array binding signal (z-score) [7]: -0.298
- glycan array binding signal (z-score) [8]: 0.296
- glycan array binding signal (z-score) [9]: -0.218
- glycan array binding signal (z-score) [10]: 0.369
- glycan array binding signal (z-score) [11]: 0.452
- glycan array binding signal (z-score) [12]: -0.007
- glycan array binding signal (z-score) [13]: -0.241
- glycan array binding signal (z-score) [14]: 0.493
- glycan array binding signal (z-score) [15]: -0.273
- glycan array binding signal (z-score) [16]: -0.184
- glycan array binding signal (z-score) [17]: -0.304
- glycan array binding signal (z-score) [18]: -0.309
- glycan array binding signal (z-score) (Neu5Ac(a2-3)GalNAc): -0.301
- glycan array binding signal (z-score) [19]: -0.322
- glycan array binding signal (z-score) [20]: 0.768
- glycan array binding signal (z-score) [21]: 0.942
- glycan array binding signal (z-score) [22]: 1.09
- glycan array binding signal (z-score) [23]: -0.314
- glycan array binding signal (z-score) (Neu5Ac(a2-6)Gal): -0.305
- glycan array binding signal (z-score) [24]: -0.227
- glycan array binding signal (z-score) (Neu5Ac(a2-6)Gal(b1-4)Glc): -0.312
- glycan array binding signal (z-score) [25]: -0.3
- glycan array binding signal (z-score) [26]: -0.22
- glycan array binding signal (z-score) [27]: -0.296
- glycan array binding signal (z-score) [28]: -0.226
- glycan array binding signal (z-score) [29]: -0.224
- glycan array binding signal (z-score) [30]: -0.269
- glycan array binding signal (z-score) [31]: -0.23
- glycan array binding signal (z-score) [32]: -0.292
- glycan array binding signal (z-score) [33]: -0.214
- glycan array binding signal (z-score) [34]: -0.24
- glycan array binding signal (z-score) [35]: -0.223
- glycan array binding signal (z-score) [36]: -0.294
- glycan array binding signal (z-score) [37]: 0.182
- glycan array binding signal (z-score) [38]: -0.237
- glycan array binding signal (z-score) [39]: -0.253
- glycan array binding signal (z-score) [40]: -0.225
- glycan array binding signal (z-score) [41]: -0.225
- glycan array binding signal (z-score) [42]: -0.222

Source: the supplement of paper PMC8728848
